Measurements as given in the RNAGym collection of RNA variant scans (doi:10.7554/elife.90254).
The source gives no read counts; variants with many changes may rest on few reads.

B1: OR4K15 (parent)
chain: GUUAACGGUCAUAGGCCAUGGAAACUAGGAGCACCAUUUCGCUGCCAGUGAAGAAAUGAACAAAGAAAAUCUGGGCCAGGCAGGCAUCAAAAGAAAUAGUCUUGCGCUCAACCAGAAAGUCUGUAAUCAUUUUAAGGGUA

Variants of: B1
Assay: self-cleavage, relative activity (ratio to wild type); higher = more cleavage; in vitro, sequencing; the parent is a self-cleaving ribozyme

| Variant | self-cleavage |
| --- | --- |
| A18G A55U A92G | 0.9 |
| C17U U43A A69G A117G | 1.39 |
| A18G A59U A68G A90G A116G | 0.35 |
| A18U A52G A60G U72C G80C | 0.02 |
| A18G C45U A54G A129G | 1.13 |
| U19A A55G U100C A116U | 0.47 |
| A18G U19C A96U A111G | 0.06 |
| A18C A47G U103C | 0.41 |
| A18U A36U U102C A114G A116U | 0.06 |
| A18U U38C A126C A140U | 0.24 |
| A18U U26C A82C | 0.23 |
| U19A A69U G136U | 1.9 |
| A18G U39C U97G U122C | 1.61 |
| U19A U49A U87A U124C | 0.9 |
| A18G A23G U49C | 1.25 |
| A18G A51U A64G A67G C112U A117G U122C | 0 |
| U19C A22G A90C | 0.63 |
| A18G A30G A98G U120C | 0.46 |
| A18U U37C A51G U97C | 0.85 |
| A18U A33G A60U | 1.13 |
| A18U A33G A60G | 0.6 |
| U19A U39A A91G A116G | 1.06 |
| A18U U19G G50A A54G A68C | 1.31 |
| A18G A54G A68G A89U | 1.7 |

| Variant | self-cleavage |
| --- | --- |
| A18G A22G A36G U139C | 0.75 |
| U19A A82G U87G U108A | 0.04 |
| A18G A62C A95G A129U | 1.1 |
| A18U U26C U127C | 0.7 |
| A18G U37C C45U A67G | 1.16 |
| A18U A22U U38C | 1.48 |
| A18G A55G A69G U131C | 1.33 |
| A18G A78U U103C U130C | 0.06 |
| A18G A24G U38C A114G | 0.9 |
| C17U A54G A94G | 1.18 |
| A18G A24C A78U A129G | 0.08 |
| A18G U37A A90U A94G A95G | 1.51 |
| U19A A67G U120A | 2.1 |
| U19A A110G A126G | 0.12 |
| U19C A22G A59G A92G A95G | 1.87 |
| A18U A36U A78G | 0.34 |
| A18U A27G U87C C112U U132C | 0.01 |
| A18G A30U G79A | 0.13 |
| U19A C45A A68G A126G | 1.21 |
| U19A U38C A67G U131C | 1.85 |
| U19A A63G A78G U87C A94G A98U | 0.24 |
| A18G G20A A23G C77U A95G | 1.55 |
| U19A A24G A95G | 1.51 |
| A18G U39C U108C | 0.03 |

| Variant | self-cleavage |
| --- | --- |
| A18U U49C A90U | 1.36 |
| A18G A114G A129G U132A | 0.15 |
| A18U A52G A60G U122A | 1.04 |
| A18U A59G A96G | 1.1 |
| A18U A52G A140G | 1.82 |
| A18U A33C C34U | 0.64 |
| U19A A47G A51G A52C U100A | 0.34 |
| A18U A24G A125G | 0.24 |
| A18U U43C A95G A110G | 0.17 |
| A18G U49C U72A A95G U139G | 0.24 |
| U19A A24G U37C A92G | 1.34 |
| A18G A96C U103C | 0.19 |
| A18G U49C U102C | 2.06 |
| C17U U37C A68G A89G U120C U122C U127A | 0.32 |
| A18G G29A A63G U122C A125U | 0.83 |
| A18U A64G A92G | 0.87 |
| U19A U43A U87C U103C | 0.1 |
| U19A U39G A54G A94G | 0.96 |
| U19A U37C U39A A60G | 0.57 |
| A18U A36G A54G U133C | 1.37 |
| U19A A47U U72C A118G | 0 |
| A18U U57G A94G A118G U122A U130C | 0.88 |
| A18G A23U U38C A52G | 0.59 |
| A18G A30G A126G A140U | 0.84 |

| Variant | self-cleavage |
| --- | --- |
| A18G U97C U132C | 1.39 |
| A18U A78G A94G C112U | 0.03 |
| U19A A52G A55G U87C C88U A95C | 1.02 |
| A18U U38A A62G A66G | 0.28 |
| U19A G28C U38A U57G | 0.51 |
| U19A U108C U122C | 0 |
| A18U A66G U72C A78G A92G | 0.14 |
| A18C A66G U100C | 1.7 |
| A18G U38C U139A | 0.85 |
| A18G A86G G106A | 0.01 |
| A18G A51G A126G U132C | 0.81 |
| A18U U37C U108C | 0.01 |
| A18U A66G U103A U120C | 0.56 |
| A18G C35U A66G | 0.98 |
| A18U A33U G106U A117G | 0.01 |
| A18G U39C U87C A116G | 0.69 |
| A18U A63C A90G A94G A110U | 0.68 |
| U19C A22G A51G A89G | 0.69 |
| A18U A33G U131C | 0.71 |
| U19A U57G A67G | 0.61 |
| A18G A23U A30U A47U A140G | 1.14 |
| A18U U49A U70C C113U | 0.03 |
| A18G C88U U130C | 1.98 |
| A18C U72C U131C | 0.12 |

| Variant | self-cleavage |
| --- | --- |
| A18U U43A A116G | 0.46 |
| U19A A62G A66G U122C | 0.84 |
| A18G A23G U122A | 1.15 |
| A18G A60G U102A A114G | 0.45 |
| A18G A22G C101G G137A | 0.21 |
| U19A U49C A67G A94G | 1.18 |
| A18G A64G U97C | 0.55 |
| A18G A54G A89G A116G U131C | 0.04 |
| A18G A47C A68G A86G U87C U131C | 0.86 |
| A18G A24G A51G A134G | 0.89 |
| U19C A22G U57C A114G A140U | 0.19 |
| A18G A63U A126G | 1.1 |
| A18U U38C A94G U100C | 1.41 |
| A18G A27U G83U G123A | 0.47 |
| A18U A64G A118G | 1.74 |
| A18G A82U U87C | 0.09 |
| A18G A67G A91G | 1.39 |
| U19A A22G A54U A68U | 1.82 |
| U19C A22G U130C | 1.09 |
| A18G U57C A59G | 1.58 |
| A18G U19C A22G U57C A59U A78U U132C | 0.18 |
| A18C U37C A51G U139C | 1.03 |
| U19A A69G A96G | 1.8 |
| A18U A24G A56G | 0.25 |

| Variant | self-cleavage |
| --- | --- |
| A18U A54G A55G | 0.45 |
| A18U U43C A52G A55G A90G | 0.28 |
| A18G G79A A118G | 0.08 |
| C17A U39C U100C A116G A135U | 0.68 |
| A18G A23G U130C | 0.43 |
| A18G A55G A78G A110G | 0.11 |
| A18G A60G A95G | 2.34 |
| U19A U103G A117G U127C | 0.04 |
| A18U G29U A55U A63G U108C | 0.02 |
| A18U U39C A69G C85A A95G | 1.23 |
| A18U A30G U72A U139A | 0.37 |
| A18C A66G A68U A82G | 0.73 |
| A18G G20U U87A A91C | 2.39 |
| A18C A86G A126U | 1.22 |
| A18G A51G A90G | 1.13 |
| U19A A24G A95G U108C A118U | 0 |
| U19A A22G A55G A90C A126G | 0.57 |
| A18U U19G A47G | 1.03 |
| U19C A22U A63U A110G | 0.15 |
| A18G U103A A110G A125G | 0.1 |
| A18G A89G A95G A117G | 0.95 |
| C17U U57C A67G A78G | 0.33 |
| A18G A24G A118G | 0.79 |
| A18G A47G A111G | 0.03 |

| Variant | self-cleavage |
| --- | --- |
| C17A U43C U133A | 1.02 |
| U19C A22G A55G A66G A111G U127A | 0.05 |
| A18G U19C U37C G79U A116U | 0.06 |
| A18U A36U C42U A94G | 0.71 |
| U19A A86G A89G U103C G138A | 0.17 |
| A18G A66G A78G A86G A91G | 0.07 |
| A18U G41A U43C A114G U122C | 0.04 |
| A18U A59G A63C A78U A86G A129G | 0.14 |
| C17U G80A U120C | 0.16 |
| A18G G50A A117U C121U | 0.86 |
| A18U A22G A82U A89G A96G | 0.2 |
| A18C A60G G119A | 1.21 |
| U19A A36G U38A U100C | 1.07 |
| A18U A89G A91G A117G A129G | 1.79 |
| U19A U37C U49C A114G | 0.1 |
| A18G A110G A118G | 0.23 |
| A18G U38C A78G | 0.25 |
| A18G U49C A64G | 1.22 |
| A18U A54G A78G C112U | 0 |
| A18G U57A U103A A116G | 0.22 |
| U19A A94G A114U | 0.08 |
| A18U U49C A60G A78U | 0.18 |
| A18G U103C A117G | 0.6 |
